According to the supplement of paper PMC11417369:
± gives the standard deviation of the averaged measurements. This is one part of the list.

Each sequence was assayed on PfAP2-LT AP2 domain (GST-tagged) (assay: gcPBM binding intensity (ln(normalized median fluorescence intensity)); higher = stronger DNA binding).
Outline: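 After 1 h on an Agilent 4 × 180k array of primer-extended double-stranded 36-bp intergenic genomic probes and negative controls, bound GST-tagged P. falciparum DNA-binding domains were detected with Alexa488 anti-GST antibody and scanned at 488 nm. The domains had been expressed in E. coli, and binding took place in 1× PBS with 1% milk, 0.2 mg/ml BSA, 0.5% salmon testes DNA and 0.03% Triton X-100. Binding intensity is the highest Masliner-normalised natural-log median intensity across replicate spots of either probe orientation.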
In the case of “ACATATCTACACAGTGGTACTTCCATTAATATATAC [XGTACX_site3827]”, the “gcPBM binding intensity (ln)” value is reported as 9.03 ± 0.38.
With “ATTTATTCAAATGGTTGTACTACAAATAAACATTAT [XGTACX_site3378]” the “gcPBM binding intensity (ln)” value was 8.66 ± 0.35.
With “TCATAAATTAAACAAACACACACGTTCTTTTATTTA [CACACA_site713]” the “gcPBM binding intensity (ln)” value was 8.94 ± 0.48.
With “AACAATGTTGTACATACACACACACTAATAAAAAAT [CACACA_site8758]” the “gcPBM binding intensity (ln)” value was 9.62 ± 0.39.
In the case of “CATAAATACACTGTAGCGCACACGGCCAAAAAAAAA [CACACA_site8537]”, the “gcPBM binding intensity (ln)” value is reported as 9.32 ± 0.42.
In the case of “ATATAATATGGTATTACACACTGTTATAAGTATGGC [CACACA_site2094]”, the “gcPBM binding intensity (ln)” value is reported as 8.97 ± 0.38.
With “TTTATTCCCGCATATAGTACATATACCATTTAATGT [XGTACX_site7011]” the “gcPBM binding intensity (ln)” value was 8.9 ± 0.38.
In the case of “GTAAAAAAAGAGCACACACACAAAAACACCCACAAA [CACACA_site1292]”, the “gcPBM binding intensity (ln)” value is reported as 10.3 ± 0.23.
“ATAAATAAAATATGCACACAAATATAGGAAACAACA [CACACA_site2561]” was tested, and the “gcPBM binding intensity (ln)” value was 9.38 ± 0.38.
For “AAACTTGTAAGAAACACACACACACGCATATAAATA [CACACA_site6518]”, the “gcPBM binding intensity (ln)” value was 9.98 ± 0.099.
“AATATTTAAGTACTGGTGCGTGTATATAATGATTAA [GTGCAC_site9633]” was tested, and the “gcPBM binding intensity (ln)” value was 8.79 ± 0.38.
With “TTAAATAAAATTTATTGTACATAAAATTAAATATAG [XGTACX_site3039]” the “gcPBM binding intensity (ln)” value was 8.34 ± 0.54.
For “CATAATTTACATAAAAGTACATATATATTAATGACG [XGTACX_site6247]”, the “gcPBM binding intensity (ln)” value was 8.74 ± 0.45.
“ATCTTTTATATATTCACACATAAAATTATACAGATA [CACACA_site5277]” was tested, and the “gcPBM binding intensity (ln)” value was 8.61 ± 0.41.
In the case of “GAGTTTTAATGTAATAGTACTTTAATTATTATATAT [XGTACX_site4527]”, the “gcPBM binding intensity (ln)” value is reported as 8.68 ± 0.42.
“TTTTTTTTTTATTCATGTACGTATTTAAATAATTCT [XGTACX_site2651]” was tested, and the “gcPBM binding intensity (ln)” value was 8.68 ± 0.44.
“AAAAAAAAAAAAAACACACAAACAAATGAATAAATA [CACACA_site3300]” was tested, and the “gcPBM binding intensity (ln)” value was 8.99 ± 0.54.
“AATAAATAAATAAATATATATATATATATATATATA [CACACA_negctrl_site708]” was tested, and the “gcPBM binding intensity (ln)” value was 9.24 ± 0.35.
For “ATATATATATATAATGCACACATTATAAATTATGTA [CACACA_site5802]”, the “gcPBM binding intensity (ln)” value was 9.02 ± 0.31.
For “TGTATATACATAAAGTGTACGTATATTTATATATAT [XGTACX_site4320]”, the “gcPBM binding intensity (ln)” value was 8.78 ± 0.37.
In the case of “TATTTTTATTTTACATTATTTGTTTATAATTCTTAA [CACACA_negctrl_site1358]”, the “gcPBM binding intensity (ln)” value is reported as 8.53 ± 0.57.
For “TATATATATAAGGATAGTACATATATTTATATGATT [XGTACX_site4954]”, the “gcPBM binding intensity (ln)” value was 8.65 ± 0.49.
For “GTATAATAAATGATAGCACACATATGTACTTATATA [CACACA_site8188]”, the “gcPBM binding intensity (ln)” value was 8.97 ± 0.46.
In the case of “ATGAAATTTATATCATGTACATACAAGAGAAAAAAA [XGTACX_site3326]”, the “gcPBM binding intensity (ln)” value is reported as 8.8 ± 0.47.
With “AAAATTATAAAATGGGCACACATGAATATTGTAGTA [CACACA_site5261]” the “gcPBM binding intensity (ln)” value was 8.9 ± 0.49.
“GACTACACACAAGGGTGTACATATATATTATATATA [XGTACX_site2247]” was tested, and the “gcPBM binding intensity (ln)” value was 9.1 ± 0.42.
For “TTAACTTATTTGTAAAGTACATTAATAAAAAGAAAA [XGTACX_site1588]”, the “gcPBM binding intensity (ln)” value was 8.34 ± 0.52.
In the case of “AGGTTATAATTGTTTTCACACATTTAAAAATGTTAT [CACACA_site5097]”, the “gcPBM binding intensity (ln)” value is reported as 8.82 ± 0.43.
With “TTATATATTTCTATTGCACACTATATTTTATGAAGA [CACACA_site2910]” the “gcPBM binding intensity (ln)” value was 8.77 ± 0.38.
For “TTTATTTTAAATTTACGTACATAATTAATCATATTT [XGTACX_site7529]”, the “gcPBM binding intensity (ln)” value was 8.62 ± 0.54.
“ATAAAAAATTAGGACTGTACATAATTTTTGTGATTT [XGTACX_site2857]” was tested, and the “gcPBM binding intensity (ln)” value was 8.64 ± 0.4.
In the case of TAATGCAACATTTATGTGCACATAAATATTTTTTAA, the “gcPBM binding intensity (ln)” value is reported as 8.62 ± 0.45.
In the case of “AAAACACAATTTATTACACACATATATTATAGATTA [CACACA_site6780]”, the “gcPBM binding intensity (ln)” value is reported as 8.88 ± 0.42.
“TTATAAAAATACAGTTAACACACATGTGTATATATA [CACACA_site9257]” was tested, and the “gcPBM binding intensity (ln)” value was 9.12 ± 0.21.
For “GATCGCATGAAATGAACACACATAAAAAAAATATAC [CACACA_site4087]”, the “gcPBM binding intensity (ln)” value was 9.15 ± 0.48.
In the case of “AAAAAAAAAATATACACACACACATACCCATAAATA [CACACA_site5981]”, the “gcPBM binding intensity (ln)” value is reported as 9.865 ± 0.035.
“AAAATAATCTTATGCACACCAAAAATTTATATAATC [CACACA_site1235]” was tested, and the “gcPBM binding intensity (ln)” value was 8.9 ± 0.42.
In the case of “ACAAAAAGTTACATACGTACGTAAAATTGTAATAAA [XGTACX_site2358]”, the “gcPBM binding intensity (ln)” value is reported as 9.1 ± 0.57.
With “ATTATATTATATATATGTACATATATATATCATAAT [XGTACX_site1]” the “gcPBM binding intensity (ln)” value was 8.79 ± 0.39.
With “ATAATACCATTAATTTGTACATATATATTATATATA [XGTACX_site4345]” the “gcPBM binding intensity (ln)” value was 8.77 ± 0.44.
In the case of “TTTTGGATGAACAGTACATGCAAAAACAAACTTGTA [TGCATGCA_site16]”, the “gcPBM binding intensity (ln)” value is reported as 8.68 ± 0.28.
In the case of “TGCTTCTTTTAAAAACATGTTTGTATTCATTTTATA [CACACA_negctrl_site1627]”, the “gcPBM binding intensity (ln)” value is reported as 8.85 ± 0.4.
With “ATTTCTCTATCGTAATGTACAAAAAAAAGGAAAAAA [XGTACX_site1323]” the “gcPBM binding intensity (ln)” value was 8.5 ± 0.51.
In the case of “ACATATAAATGATATGTACACACATTTATATATATA [CACACA_site9152]”, the “gcPBM binding intensity (ln)” value is reported as 9.06 ± 0.26.
For TTTTTAACGTATAAGGTGCACTGTATATGGTACTCA, the “gcPBM binding intensity (ln)” value was 8.88 ± 0.45.
